The text below walks through data of publication PMC3938053.

Protein sequences, listed by entry. Tags and fused reporters are not part of them. Lines headed by an entry give the natural chain unless they say otherwise; changes in a name come on top.
UniProt Q15796: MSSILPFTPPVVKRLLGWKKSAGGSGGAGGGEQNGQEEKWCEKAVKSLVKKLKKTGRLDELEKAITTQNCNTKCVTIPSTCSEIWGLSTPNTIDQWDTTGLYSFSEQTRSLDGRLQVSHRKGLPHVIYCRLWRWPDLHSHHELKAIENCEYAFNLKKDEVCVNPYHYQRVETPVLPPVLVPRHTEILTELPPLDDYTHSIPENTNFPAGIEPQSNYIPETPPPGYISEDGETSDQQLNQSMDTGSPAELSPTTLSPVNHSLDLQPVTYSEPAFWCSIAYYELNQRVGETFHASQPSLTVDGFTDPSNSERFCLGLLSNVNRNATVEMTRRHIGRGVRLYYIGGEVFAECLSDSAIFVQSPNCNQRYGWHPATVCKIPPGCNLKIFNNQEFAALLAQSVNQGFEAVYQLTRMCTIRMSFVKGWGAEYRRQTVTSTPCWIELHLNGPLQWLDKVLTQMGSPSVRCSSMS
UniProt P84022: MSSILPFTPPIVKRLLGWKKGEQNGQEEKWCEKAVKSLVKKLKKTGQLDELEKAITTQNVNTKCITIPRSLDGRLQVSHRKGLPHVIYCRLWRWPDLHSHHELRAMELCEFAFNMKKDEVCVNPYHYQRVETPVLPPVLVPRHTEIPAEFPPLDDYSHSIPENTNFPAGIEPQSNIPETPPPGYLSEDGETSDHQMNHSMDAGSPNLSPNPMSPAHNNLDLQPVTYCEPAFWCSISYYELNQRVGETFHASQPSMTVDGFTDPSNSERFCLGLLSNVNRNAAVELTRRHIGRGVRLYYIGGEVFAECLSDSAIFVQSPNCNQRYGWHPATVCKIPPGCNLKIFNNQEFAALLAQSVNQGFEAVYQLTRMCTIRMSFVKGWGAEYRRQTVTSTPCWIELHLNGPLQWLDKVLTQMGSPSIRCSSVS
UniProt Q15797: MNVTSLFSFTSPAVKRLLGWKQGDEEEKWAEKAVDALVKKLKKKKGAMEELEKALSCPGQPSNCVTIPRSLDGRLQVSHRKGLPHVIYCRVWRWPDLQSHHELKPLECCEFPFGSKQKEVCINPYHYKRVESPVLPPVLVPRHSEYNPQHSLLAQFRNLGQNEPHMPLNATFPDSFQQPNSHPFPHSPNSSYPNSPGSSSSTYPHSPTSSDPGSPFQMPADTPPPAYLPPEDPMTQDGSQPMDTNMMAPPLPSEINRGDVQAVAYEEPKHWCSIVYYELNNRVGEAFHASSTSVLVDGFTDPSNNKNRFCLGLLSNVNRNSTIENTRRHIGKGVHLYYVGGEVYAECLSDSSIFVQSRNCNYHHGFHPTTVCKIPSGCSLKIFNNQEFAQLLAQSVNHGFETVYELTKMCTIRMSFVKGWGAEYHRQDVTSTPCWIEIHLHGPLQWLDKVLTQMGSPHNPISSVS
UniProt Q13485: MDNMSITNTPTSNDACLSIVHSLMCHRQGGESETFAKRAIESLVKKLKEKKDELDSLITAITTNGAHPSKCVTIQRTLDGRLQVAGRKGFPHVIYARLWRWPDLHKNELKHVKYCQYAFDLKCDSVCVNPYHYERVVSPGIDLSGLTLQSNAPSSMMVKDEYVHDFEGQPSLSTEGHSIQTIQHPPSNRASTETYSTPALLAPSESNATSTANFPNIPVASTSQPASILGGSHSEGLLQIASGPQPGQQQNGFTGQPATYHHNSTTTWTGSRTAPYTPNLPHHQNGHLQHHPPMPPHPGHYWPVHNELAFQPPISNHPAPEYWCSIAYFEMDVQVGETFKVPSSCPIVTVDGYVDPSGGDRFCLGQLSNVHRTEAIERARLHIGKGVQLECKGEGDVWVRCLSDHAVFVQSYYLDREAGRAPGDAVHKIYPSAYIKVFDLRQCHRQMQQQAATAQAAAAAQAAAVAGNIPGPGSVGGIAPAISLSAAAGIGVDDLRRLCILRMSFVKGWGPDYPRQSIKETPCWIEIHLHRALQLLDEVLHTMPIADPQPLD
UniProt Q99717: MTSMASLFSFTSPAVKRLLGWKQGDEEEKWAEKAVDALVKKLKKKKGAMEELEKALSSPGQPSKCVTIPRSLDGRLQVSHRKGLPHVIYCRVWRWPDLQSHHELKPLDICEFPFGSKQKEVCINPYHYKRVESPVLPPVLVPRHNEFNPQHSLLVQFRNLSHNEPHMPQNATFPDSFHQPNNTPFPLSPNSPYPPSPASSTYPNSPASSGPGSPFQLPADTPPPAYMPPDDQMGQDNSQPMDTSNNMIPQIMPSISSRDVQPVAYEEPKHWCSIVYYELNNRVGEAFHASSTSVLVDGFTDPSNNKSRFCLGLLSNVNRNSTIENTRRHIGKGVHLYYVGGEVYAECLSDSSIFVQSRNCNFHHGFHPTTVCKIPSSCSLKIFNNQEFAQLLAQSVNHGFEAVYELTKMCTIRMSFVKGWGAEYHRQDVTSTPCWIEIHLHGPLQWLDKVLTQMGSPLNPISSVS
UniProt O15198: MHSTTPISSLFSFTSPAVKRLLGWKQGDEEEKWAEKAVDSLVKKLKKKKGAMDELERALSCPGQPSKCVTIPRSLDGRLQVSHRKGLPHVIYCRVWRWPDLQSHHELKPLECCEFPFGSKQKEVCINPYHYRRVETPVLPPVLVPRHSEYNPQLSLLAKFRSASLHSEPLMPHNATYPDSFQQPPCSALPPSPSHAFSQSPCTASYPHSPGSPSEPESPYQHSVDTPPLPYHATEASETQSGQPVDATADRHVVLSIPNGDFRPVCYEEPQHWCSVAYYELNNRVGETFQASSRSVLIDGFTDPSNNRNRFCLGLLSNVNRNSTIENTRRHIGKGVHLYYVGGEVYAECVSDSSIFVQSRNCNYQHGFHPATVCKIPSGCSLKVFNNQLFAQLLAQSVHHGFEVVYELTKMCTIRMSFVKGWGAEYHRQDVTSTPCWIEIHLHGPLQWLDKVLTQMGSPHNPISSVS

These are yes or no findings as the source states them, for the method shown. For part of these data: Binding seen in cells or lysates may run through a third protein. Some results given as binding are weak or reduced against the parent protein; the word gives no strength. For part of these data: Tags and fused reporters may be left off the sequences shown.

One assay has as its target T1, PAWS1, endogenous in HaCaT cells (human (endogenous in HaCaT)) (UniProt A6ND36).
T1 sequence: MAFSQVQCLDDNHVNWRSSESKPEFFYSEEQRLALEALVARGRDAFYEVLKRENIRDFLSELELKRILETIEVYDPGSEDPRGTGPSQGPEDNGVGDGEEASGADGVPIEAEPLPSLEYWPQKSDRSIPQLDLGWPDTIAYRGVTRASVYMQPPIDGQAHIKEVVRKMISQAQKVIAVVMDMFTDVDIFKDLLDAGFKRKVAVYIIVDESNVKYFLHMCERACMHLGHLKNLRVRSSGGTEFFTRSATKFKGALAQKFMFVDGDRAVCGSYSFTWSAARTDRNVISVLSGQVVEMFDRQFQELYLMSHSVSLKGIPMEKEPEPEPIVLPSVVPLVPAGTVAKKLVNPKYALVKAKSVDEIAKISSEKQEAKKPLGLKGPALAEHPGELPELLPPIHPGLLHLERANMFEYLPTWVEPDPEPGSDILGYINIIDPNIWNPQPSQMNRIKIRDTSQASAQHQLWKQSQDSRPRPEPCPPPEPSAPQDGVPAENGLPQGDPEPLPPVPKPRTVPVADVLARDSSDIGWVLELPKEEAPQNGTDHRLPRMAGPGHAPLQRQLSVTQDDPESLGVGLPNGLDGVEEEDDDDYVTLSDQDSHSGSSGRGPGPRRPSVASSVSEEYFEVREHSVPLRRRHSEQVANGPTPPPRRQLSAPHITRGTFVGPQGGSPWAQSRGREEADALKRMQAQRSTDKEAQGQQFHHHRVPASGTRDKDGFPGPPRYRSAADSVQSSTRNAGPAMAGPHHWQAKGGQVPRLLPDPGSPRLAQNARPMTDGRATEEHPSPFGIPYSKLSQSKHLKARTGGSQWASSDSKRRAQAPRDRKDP
Description: co-IP; endogenous proteins, HaCaT extracts; anti-PAWS1 IP, immunoblots for SMAD1 and SMAD2/3; cells untreated or treated with BMP-2 (25 ng/ml, 1 h) or TGF-β (50 pM, 1 h). A general note: In western blotting, separated proteins are transferred to a membrane and probed.
For the substance “SMAD2, endogenous in HaCaT cells (from UniProt Q15796 1-467)”, the binding result is listed as “no binding”.

On to “SMAD3, endogenous in HaCaT cells (from UniProt P84022 1-425)”, for which the binding entry is “no binding”.

As to “SMAD1, endogenous in HaCaT cells (from UniProt Q15797 1-465)”, the binding entry is on record as “binds”.

A further assay concerns the target T2, FLAG-PAWS1 (human) (UniProt A6ND36).
T2 sequence: T1 sequence
Description: co-IP; HEK293 cells co-transfected with FLAG-PAWS1 and HA- or GFP-tagged SMADs or HA-SMAD1 fragments; anti-FLAG IPs immunoblotted; washes with lysis buffer with 0.5 M NaCl.
As to GFP-SMAD4 (from UniProt Q13485 1-552), the binding result was “no binding”.

With GFP-SMAD1 (from UniProt Q15797 1-465), the binding entry is on record as “binds”.

On to HA-SMAD1 (from UniProt Q15797 1-465), for which the binding result was “binds”.

In the case of HA-SMAD3 (from UniProt P84022 1-425), the binding result is recorded as “no binding”.

Regarding GFP-SMAD5 (from UniProt Q99717 1-465), the binding entry is recorded as “binds”.

Take GFP-SMAD8 (from UniProt O15198 1-467): the binding entry is “binds”.

As for HA-SMAD2 (from UniProt Q15796 1-467), the binding entry is “no binding”.

In the case of “HA-MH2 domain of SMAD1 (from UniProt Q15797 271-465) (domain or fragment)”, the binding result is recorded as “binds”.

The target in the next assay is T1, PAWS1, endogenous in HaCaT cells (human (endogenous in HaCaT)). The assay is described as follows: SEC; HaCaT extracts (1 mg) from cells untreated or treated with BMP-2 or TGF-β, Superose 6 10/300 GL, 50 mM Tris-HCl 7.5, 150 mM NaCl, 0.03% Brij-35; 32 fractions immunoblotted; SMAD1 IPs from fractions immunoblotted.
As for “SMAD1, endogenous in HaCaT cells (from UniProt Q15797 1-465)”, the binding result is “binds”.

As to “SMAD4, endogenous in HaCaT cells (from UniProt Q13485 1-552)”, the binding result is “no binding”.

As to “TGF-β-induced phospho-SMAD2, endogenous in HaCaT cells (from UniProt Q15796 1-467)”, the binding entry was “no binding”.

Take “TGF-β-induced phospho-SMAD3, endogenous in HaCaT cells (from UniProt P84022 1-425)”: the binding result was “no binding”.
